The assay relates to Plasmodium falciparum. Description: Primary screen in NF54 nanoGlo assay, in single point, at 2uM, 72h; a lower Z score goes with more inhibition. It counts as functional, Erythrocyte. Conditions: timepoint 72 hour.

The whole screen tested about 150,000 compounds, of which about 540 (0.36%) showed an effect of 50% or more. Some of the results follow.

By % Inhibition is commonly meant the change of the read-out against control, counted positive when it falls.

Consider `O=C(NCCc1ccn(-c2ccccc2)n1)c1nn(-c2ccc(F)cc2)cc1O`, for which the “% Inhibition” value is 15% and the Z score is -1.78.

Consider `CC(C)(C)c1cc(CCC(=O)Nc2c3c(nc4ccccc24)CCCC3)cc(C(C)(C)C)c1O`, for which the “% Inhibition” value was -9% and the Z score was 1.77.

Take `CCn1nc(CN2CCC(NC(=O)Cc3ccc(OC)cc3)CC2)c2c1CCOC2`: the “% Inhibition” value is -19% and the Z score came out at 1.7.

In the case of `CN(C)S(=O)(=O)N1CCC(C(=O)NCc2ccccc2CN2CCOCC2)CC1`, the “% Inhibition” value is 12% and the Z score is -1.61.

`COC(=O)C1CCC(NC(=O)NC2CCC(C)CC2C)CC1` (centres undefined): the “% Inhibition” value was -3% and the Z score was found to be 0.3.

Take `C[C@@]12CN(C(=O)C3CCC(S(C)(=O)=O)CC3)C[C@@H]1[C@@H]1CC[C@H]2C1` (some centres undefined): the “% Inhibition” value was determined as 4% and the Z score is -0.36.

Take `COc1cccnc1C(=O)N1c2ccccc2CC[C@H]1C(=O)N1CCN(C)CC1`: the “% Inhibition” value is given as 3% and the Z score is -0.57.

Take `Cc1nc(N(C)C)sc1CN(C)CCc1ccncc1`: the “% Inhibition” value is -6% and the Z score is 0.8.

Take `CCn1ccnc1CS(=O)(=O)C1CCCCC1`: the “% Inhibition” value is listed as -12% and the Z score is 1.82.

In the case of `c1cncc(-c2noc(CN3CCCc4ccccc43)n2)c1`, the “% Inhibition” value is on record as 2% and the Z score is given as -0.28.

For the molecule `CCN1C[C@H](CN(C)c2nn(C)c(=O)n(C)c2=O)Oc2ccccc21`, the “% Inhibition” value is -15% and the Z score was determined as 1.95.

On to `Cc1cnc(NCCCN(C)c2ccccc2)nc1`, for which the “% Inhibition” value is on record as 3% and the Z score was -0.48.

In the case of `Cc1cccc(-c2noc(N3CCOCC3)c2CN(Cc2ccc(F)cc2)C(=O)c2ccccc2)c1`, the “% Inhibition” value was 3% and the Z score is recorded as -0.41.

Take `O=C(Cc1n[nH]c(-c2cccnc2)n1)NCc1ccccc1`: the “% Inhibition” value was -1% and the Z score is 0.09.

Take `O=C(Nc1ccc2c(c1)cc(C(=O)NCCN1CCOCC1)n2Cc1cccc(F)c1)c1ccccc1Cl`: the “% Inhibition” value was -10% and the Z score was 1.29.

With `CC(C)CN1C[C@@H]2C[C@@H](O)CN2C2(C1)CN(Cc1ccccc1F)C2`, the “% Inhibition” value is reported as 0% and the Z score is -0.06.

As for `O=C(NC1CCOc2ccccc21)C1CC(O)CN1` (centres undefined), the “% Inhibition” value was determined as 7% and the Z score is listed as -1.04.

Regarding `CC(C)Oc1cccc(Cn2nnnc2N(C)C[C@H]2COCCO2)c1`, the “% Inhibition” value is -8% and the Z score stood at 0.87.

On to `O=C1C[C@H](NC(=O)c2cccc3ccccc23)CN1`, for which the “% Inhibition” value was -2% and the Z score is given as 0.3.

Consider `Cc1cc(C(=O)N2CCN(C[C@H](C)O)CC2)c2c(C3CC3)noc2n1`, for which the “% Inhibition” value came to 0% and the Z score is recorded as 0.02.

For the molecule `CC(C)c1noc(-c2ccc(-c3cc[nH]n3)cc2)n1`, the “% Inhibition” value is reported as -3% and the Z score stood at 0.59.

As to `COCc1nc([C@H]2CCN(C(=O)Cc3ccccc3)C2)no1`, the “% Inhibition” value is given as -2% and the Z score was 0.44.

Take `O=C(OCCc1n[nH]c(CCOC(=O)c2ccccc2)n1)c1ccccc1`: the “% Inhibition” value is -2% and the Z score is listed as 0.33.

In the case of `O=C1C2C3c4ccccc4C(c4ccccc43)[C@@H]2C(=O)N1c1nc(-c2ccccc2)cs1` (some centres undefined), the “% Inhibition” value amounted to 5% and the Z score is recorded as -0.78.

Regarding `O=C1NCCCc2[nH]c(-c3nncn3C3CCCCC3)nc21`, the “% Inhibition” value is listed as -16% and the Z score came to 1.44.

As to `COCCOCCC(=O)NC[C@H](C)c1nc2ccccc2o1`, the “% Inhibition” value is -4% and the Z score was 0.82.

On to `COC(=O)[C@H]1CC[C@H](C(=O)N2CCC=Cc3ccccc32)CC1`, for which the “% Inhibition” value stood at 2% and the Z score is recorded as -0.19.

With `COCC(=O)N1CCN(C(=O)c2c(-c3ccccc3)oc(C)c2C)CC1`, the “% Inhibition” value is reported as -13% and the Z score is given as 1.69.

Regarding `CN1CC(=O)N2CCN(CCC(F)(F)F)C[C@H]2C1=O`, the “% Inhibition” value was found to be 2% and the Z score is on record as -0.3.

As for `O=C1C[C@]2(NC(=O)CC3CCN(CC(F)F)CC3)CCCC[C@@H]2N1`, the “% Inhibition” value is -7% and the Z score is given as 1.34.

Turning to `CN(C[C@H]1CCCCO1)C(=O)NCc1nc[nH]n1`, the “% Inhibition” value is on record as 1% and the Z score is given as -0.17.

`C[C@@H](CCNC(=O)c1cc(-c2ccsc2)n[nH]1)n1ccnc1`: the “% Inhibition” value is listed as -4% and the Z score is on record as 0.68.

For `CCn1cnc2c(NCc3ccnc(C(F)(F)F)c3)ncnc21`, the “% Inhibition” value was -3% and the Z score worked out at 0.42.

For `Cc1cc(N2CCC(NC(=O)CN3CCN(C(=O)OC(C)(C)C)CC3=O)CC2)ncn1`, the “% Inhibition” value is -4% and the Z score is reported as 0.47.

For `Cc1ccsc1C(=O)Nc1ccc(N(C)C)nc1`, the “% Inhibition” value is -6% and the Z score was 0.84.

With `O=C(CN1C(=O)COc2ccc(C(=O)N3CCCC3)cc21)N1CCN(c2cccc(Cl)c2)CC1`, the “% Inhibition” value was -3% and the Z score is on record as 0.46.

For the molecule `COc1ccc(-c2cc(C(F)F)nc(N[C@@H](C)c3ccc(N4CCOCC4)cc3)n2)cc1OC`, the “% Inhibition” value was 11% and the Z score was -1.69.

As for `C[C@H]1CN(C(=O)c2ccc3nccn3c2)CCN1`, the “% Inhibition” value is recorded as -5% and the Z score was determined as 0.86.

As to `CCC1(CO)CCN(C(=O)NCCc2ccsc2)CC1`, the “% Inhibition” value is listed as -14% and the Z score was 1.44.

As to `CO[C@@H]1CS(=O)(=O)[C@H]2CN(C(=O)Nc3cccc(-c4ncco4)c3C)C[C@@H]12`, the “% Inhibition” value was -8% and the Z score amounted to 1.16.

Take `O=C(NCc1cccc(Br)c1)[C@H]1CCCN(c2nc3ncccc3n3cccc23)C1`: the “% Inhibition” value is on record as -23% and the Z score was 2.69.

`CCNc1cc(C(=O)N2CCC3CCCCC32)ccn1` (centres undefined): the “% Inhibition” value was -10% and the Z score is recorded as 1.06.

Source of the values: ChEMBL document CHEMBL4888484, “Replenishing the malaria drug discovery pipeline: Screening and hit evaluation of the MMV Hit Generation Library 1 (HGL1) against asexual blood stage Plasmodium falciparum ,using a nano luciferase reporter read-out” (2022).
